Data: PubChem BioAssay AID588855 (National Center for Advancing Translational Sciences (NCATS), 2011)
Screen size: about 410,000 compounds; about 5,000 (1.2%) were called active. This list was built around the results that the source calls inconclusive (neither active nor inactive); the mix of calls is not that of the screen. The call rests on the fitted dose curve; in most records, active means well fitted inhibition curve with a large enough effect; inconclusive means small, poorly fitted or top-dose-only effect; inactive means no such curve, though single readings can be large or run the other way. A potency beside an inconclusive call is a rough fit, not a confirmed value.

Test: qHTS for Inhibitors of TGF-b; further: nearly all actives have a fitted effect of over 65% in size
Conditions: HepG2 CAGA-GFP TGF-b/SMAD3 reporter, GFP fluorescence, 18 h, TGF-beta stimulated, 500 pg/mL final; series mostly up to 46.1 µM; activity, negative = inhibition: at the top concentration
In short: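 Inhibition of TGF-beta-driven CAGA-GFP reporter expression in HEPG2 cells is measured by cellular GFP fluorescence after 18 h stimulation with 500 pg/mL recombinant TGF-beta in 1% FBS medium at 37 degrees C.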
On the % scale 0 is the no-effect control and ±100 the full control effect; potency means the concentration at half of the fitted maximal effect; tags describe the fitted curve by direction and shape.

Row | SMILES | Potency | activity, negative = inhibition
1 | Cc1ccc(S(=O)(=O)CCC(=O)Nc2cccc(S(=O)(=O)N3CCCCCC3)c2)cc1 | inconclusive: 5.62 µM [inhibitor, full curve, poor fit] | 
2 | Cc1cc(NC(=O)CN2C(=O)N(C)C3(CCCCC3)C2=O)ccc1Br |  | inactive: 1.94%
3 | O=c1[nH]c2ccc(Cl)cc2c(-c2ccccc2)c1[N+](=O)[O-] | inconclusive: 10 µM [inhibitor, partial curve, poor fit] | 
4 | O=Cc1s/c(=N\S(=O)(=O)c2ccccc2)n(CCCCl)c1Cl | active: 3.98 µM | 
5 | Cc1ccccc1OCC(=O)NCC(=O)OCC(=O)c1ccc(-c2ccccc2)cc1 |  | inactive: 14.3%
6 | O=C(NC(=S)Nc1ccc(N2CCOCC2)cc1)c1cccc(Cl)c1 | inconclusive: 15.8 µM [inhibitor, single point] | 
7 | c1ccc(COc2ncnc3c2ncn3CCCN2CCN(Cc3cccc4ccccc34)CC2)cc1 | inconclusive: 22.4 µM [inhibitor, single point] | 
8 | CC(=O)Nc1ccc(S(=O)(=O)N2CCN=C2SCc2ccc(F)cc2)cc1 |  | inactive: -17.7%
9 | CCCCN(CC)CCNC(=O)c1cc2c(-c3ccccc3F)nn(C)c2s1 | inconclusive: 25.1 µM [inhibitor, single point] | 
10 | CCOCCOC(=O)c1[nH]c2c(c1C)C(=O)CC(c1ccccc1)C2 (stereo not drawn) | inconclusive: 7.08 µM [inhibitor, partial curve, poor fit] | 
11 | Fc1ccc(NC(=S)N2CCSC2c2cccs2)cc1 (stereo not drawn) | inconclusive: 14.1 µM [inhibitor, partial curve, poor fit] | 
12 | O=C(c1ccc2c(c1)N(Cc1ccc(Cl)cc1)C(=O)c1ccccc1S2=O)N1CCN(c2ccccc2F)CC1 (stereo not drawn) | inconclusive: 3.98 µM [inhibitor, single point] | 
13 | CCO/C(C)=C1/SC(=S)NC1=O |  | inactive: 20.6%
14 | CN(C)S(=O)(=O)c1ccc(C(=O)NCCSc2ccccc2)cc1 |  | inactive: 3.44%
15 | Cn1cc(CN2CCCC(C(=O)Nc3cccc(-c4cc5ccccc5[nH]4)c3)C2)cn1 (stereo not drawn) | inconclusive: 31.6 µM [inhibitor, single point] | 
16 | CC1CC(C)CN(c2nc(N(C)c3ccccc3)nc(N)c2[N+](=O)[O-])C1 (stereo not drawn) | inconclusive: 15.8 µM [inhibitor, single point] | 
17 | COc1ccc(OCC(O)CN2C(=O)c3ccccc3C2=O)cc1 (stereo not drawn) |  | inactive: -12.5%
18 | CC1=C(C(=O)N(C)C)CC(CC(=O)NCc2cccc3ccccc23)C(=O)N1Cc1ccc(C(C)(C)C)cc1 (stereo not drawn) | inconclusive: 11.2 µM [inhibitor, partial curve, poor fit] | 
19 | CC1Cc2ccccc2N1C1=CC(=O)CC(C)(C)C1 (stereo not drawn) | inconclusive: 8.91 µM [inhibitor, partial curve, poor fit] | 
20 | CCN(CC)C(=O)Cn1cc(SCC(=O)Nc2ccccc2F)c2ccccc21 |  | inactive: -54%
21 | O=C(CSc1cccc2cccnc12)N/N=C/c1cccc(O)c1 |  | inactive: -13.7%
22 | COc1ccc(CNC(=O)COC(=O)CN2C(=O)COc3ccccc32)cc1 |  | inactive: 12.6%
23 | Cc1cc(C)c2c(c1)OC(=O)CC2c1ccc2c(c1)OCO2 (stereo not drawn) |  | inactive: -13.8%

Row | SMILES | Potency | activity, negative = inhibition
24 | O=C(NCCCN1CCN(c2cccc(Cl)c2)CC1)Nc1ccccc1C(F)(F)F | inconclusive: 25.1 µM [inhibitor, single point] | 
25 | Cc1cccc(N(Cc2cc3ccc(C)cc3[nH]c2=O)C(=O)c2ccco2)c1 | inconclusive: 17.8 µM [inhibitor, single point] | 
26 | COc1cccc(CNC(=O)C2CCN(c3nn4c(=O)cc(C)nc4s3)CC2)c1 | inconclusive: 7.94 µM [inhibitor, partial curve, poor fit] | 
27 | COc1ccc(C(=O)/C=C/c2ccc(O)cc2)c(O)c1C/C=C(\C)CCC=C(C)C | inconclusive: 12.6 µM [inhibitor, partial curve, poor fit] | 
28 | CCOc1ccc(NC(=O)c2cc3c(n(-c4ccc(OC)cc4)c2=O)CC(C)(C)CC3=O)cc1 | inconclusive: 28.2 µM [inhibitor, single point] | 
29 | COc1ccccc1Cn1c(CNS(=O)(=O)c2ccccc2Cl)nc2cccnc21 |  | inactive: -21.1%
30 | CC(=O)c1cccc(NC(=O)c2cccn2-c2nnc(N3CCCCC3)s2)c1 | inconclusive: 22.4 µM [inhibitor, single point] | 
31 | Cc1nn(Cc2ccc(C(=O)N3c4ccc(F)cc4CCC3C)o2)c(C)c1Br (stereo not drawn) | inconclusive: 12.6 µM [inhibitor, single point] | 
32 | COc1ccc(NC(=O)CN2C(=O)COc3ccc(S(=O)(=O)Nc4ccccc4)cc32)cc1OC | inconclusive: 25.1 µM [inhibitor, partial curve, poor fit] | 
33 | CN(C)C(=O)COC(=O)c1ccccc1OCC(=O)Nc1ccc(Br)cc1 |  | inactive: 4.23%
34 | O=C(Cn1cnc2sc(-c3ccccc3)cc2c1=O)NCCc1ccccc1 |  | inactive: 7.61%
35 | Cc1c(Cl)cccc1Nc1nn2c(=O)c3ccc(C(=O)NCCc4ccccc4)cc3nc2s1 |  | inactive: -27.9%
36 | CCC(C)(C)n1nnnc1C(c1cc2cc(C)ccc2[nH]c1=O)N1CCCC1 (stereo not drawn) |  | inactive: -0.136%
37 | COc1ccc(C2=NN(C(=O)c3cccs3)C(O)(C(F)(F)F)C2)cc1 (stereo not drawn) | inconclusive: 10 µM [inhibitor, partial curve, poor fit] | 
38 | O=S(=O)(c1cccc(Cl)c1Cl)N1CCN(C(=S)NCCCN2CCOCC2)CC1 |  | inactive: -23.3%
39 | Cc1cccc(NC(=O)CN2C(=O)CNC2=O)c1 | inconclusive: 35.5 µM [inhibitor, single point] | 
40 | O=S(=O)(Nc1ccccc1)c1ccc(-c2cnc(C3CC3)o2)cc1 | inconclusive: 17.8 µM [inhibitor, single point] | 
41 | COc1cc(SC)ccc1C(=O)Nc1c(Cl)cncc1Cl | inconclusive: 25.1 µM [inhibitor, single point] | 
42 | Cc1cc(N/N=C\c2ccccc2)nc(-c2ccccc2O)n1 | inconclusive: 35.5 µM [inhibitor, single point] | 
43 | O=c1oc(-c2ccccc2NS(=O)(=O)c2ccc3ccccc3c2)nc2ccccc12 | inconclusive: 7.94 µM [inhibitor, partial curve, poor fit] | 
44 | CC(=O)OC(C(=O)Nc1nccs1)c1ccccc1 (stereo not drawn) |  | inactive: 1.04%
45 | COCC(C)n1c(SCC(=O)NNC(=O)c2ccc(F)cc2)nc2ccccc2c1=O (stereo not drawn) | inconclusive: 35.5 µM [inhibitor, single point] | 
46 | O=C1CC(N2CCN(C/C=C/c3ccccc3)CC2)C(=O)N1CCc1ccccc1 (stereo not drawn) | inconclusive: 35.5 µM [inhibitor, single point] | 

Row | SMILES | Potency | activity, negative = inhibition
47 | CCC1=C(OC(=O)N(CC)CC)N2C(=O)OC(=NCCc3c[nH]c4ccccc34)[C@]2(Cc2ccccc2)[C@H]2C1=CC[C@H]1C(=O)NC(=O)[C@H]12 | inconclusive: 2.51 µM [inhibitor, partial curve, poor fit] | 
48 | Cc1cc([N+](=O)[O-])c2ccccc2c1NS(=O)(=O)c1ccccc1 | inconclusive: 35.5 µM [inhibitor, single point] | 
49 | O=C(NCCN1CCN(C(=O)c2ccc(Br)cc2)CC1)c1ccc(Br)cc1 | inconclusive: 10 µM [inhibitor, partial curve, poor fit] | 
50 | O=C(NC(c1ccc(F)cc1)c1ccc2ccccc2n1)C1CCN(CCOc2ccc(Cl)cc2)CC1 (stereo not drawn) | active: 15.8 µM | 
51 | CC(C)c1cc(C(C)C)n2nc(N)nc2n1 | inconclusive: 35.5 µM [inhibitor, single point] | 
52 | O=C(N/N=C/c1sc(N2CCOCC2)nc1-c1ccccc1)c1ccccc1Cl |  | inactive: 2.29%
53 | CN1CCN(C(=O)c2cc(COc3ccc(F)cc3Cl)on2)CC1c1ccccc1 (stereo not drawn) | inconclusive: 15.8 µM [inhibitor, single point] | 
54 | COc1cccc(OC)c1C(=O)NC(C)C12CC3CC(CC(C3)C1)C2 (stereo not drawn) |  | inactive: -20.4%
55 | COc1cccc(NC(=O)CN(C)C(=O)CSc2ccc3c(c2)OCCO3)c1 |  | inactive: -2.72%
56 | CCCC(=O)N=C1SC2CS(=O)(=O)CC2N1c1ccc(-c2nc3ccc(C)cc3s2)cc1 (stereo not drawn) | inconclusive: 4.47 µM [inhibitor, full curve, poor fit] | 
57 | CCN(CC)C(=O)CSC1=Nc2ccccc2C2=NC(c3ccccc3)C(=O)N12 (stereo not drawn) |  | inactive: -16.1%
58 | O=S(=O)(c1ccccc1F)N1CCC(Oc2ccc(-n3cnnn3)cc2)CC1 | inconclusive: 35.5 µM [inhibitor, single point] | 
59 | COc1ccc(NC(=O)N(C)C[C@H]2Oc3c(NC(=O)Nc4ccc(C(F)(F)F)cc4)cccc3C(=O)N([C@H](C)CO)C[C@@H]2C)cc1 | inconclusive: 20 µM [inhibitor, single point] | 
60 | Cc1cc(CNC(=O)COc2ccccc2F)c2ccccc2n1 |  | inactive: 8.32%
61 | Cc1nnc(N/N=C\c2ccc(-c3ccccc3[N+](=O)[O-])o2)n1N | active: 8.91 µM | 
62 | C=CCn1cc(/C=N/Nc2nc3ccccc3[nH]2)c2ccccc21 | inconclusive: 35.5 µM [inhibitor, single point] | 
63 | Cc1cc(C(=O)COC(=O)c2ccc(Cl)c(S(N)(=O)=O)c2)c(C)n1C1CC1 |  | inactive: 0.0348%
64 | C[C@H]1CCC(=O)N([C@H](CC#N)Cc2ccccc2)CC1 | inconclusive: 15.8 µM [inhibitor, single point] | 
65 | COc1ccc(/C=C2/Sc3ccc(C(=O)NCCN4CCCCCC4)cc3NC2=O)cc1 | active: 25.1 µM | 
66 | Cn1nnnc1Sc1ncnc2scc(-c3ccccc3Cl)c12 | inconclusive: 15.8 µM [inhibitor, single point] | 
67 | CN(Cc1ccccc1)C(=O)CSc1nc2ccsc2c(=O)n1-c1ccc(F)cc1 |  | inactive: -19%
68 | Cc1ccc(N2C(N)=C(C#N)C(c3ccsc3)C3=C2CC(C)(C)CC3=O)cc1 (stereo not drawn) |  | inactive: -6.28%
